From the supplement of paper PMC5790926
Counter-ions that a name gives are not always drawn. Inhibition of entry of single-cycle reporter particles into MDCK-SIAT1 cells, 3 h drug pretreatment, overnight read-out. IC50, lower = stronger. No active / inactive call; only inhibitors are listed. Mostly one titration per compound.

Test system: E-S-FLU (Zaire C15 EBOV-GP pseudotyped S-FLU) in MDCK-SIAT1 cells
Assay: IC50 inhibition of E-S-FLU (EBOV-GP pseudotyped influenza) infection
Protocol: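 MDCK-SIAT1 cells were pretreated for 3 h with two-fold drug dilutions, then exposed overnight to a single-cycle eGFP reporter particle coated with the named glycoprotein; eGFP read on fixed cells. Mostly one titration per compound; only inhibitors are listed.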

Compound	IC50 inhibition of E-S-FLU
CSc1ccc2c(c1)C(N1CCN(C)CC1)Cc1ccccc1S2 (stereo unspecified) [Methiothepin]	3.4 µM
CN1CCN2c3ccccc3Cc3ccccc3C2C1 (stereo unspecified) [Mianserin HCl]	58.9 µM
O=c1c(O)c(-c2cc(O)c(O)c(O)c2)oc2cc(O)cc(O)c12 [Myricetin]	25.3 µM
Clc1ccc2c(c1)N=C(N1CCNCC1)c1ccccc1N2 [N-Desmethylclozapine]	17.5 µM
CNCCc1cnc(CCC(c2ccccc2)c2ccccc2)[nH]1 [N-methylhistaprodifen dioxalate salt]	10.3 µM
CC(C)[C@H]1c2ccc(F)cc2CC[C@@]1(CCN(C)CCCc1nc2ccccc2[nH]1)OC(=O)C1CC1 [NNC 55-0396]	1.8 µM
COc1ccccc1N1CCN(CC(O)COc2cccc3ccccc23)CC1 (stereo unspecified) [Naftopidil dihydrochloride]	65.5 µM
Oc1ccc2c3c1O[C@H]1c4oc5ccccc5c4C[C@@]4(O)[C@@H](C2)N(CC2CC2)CC[C@]314 [Naltriben methanesulfonate]	99.1 µM
Oc1ccc2c3c1O[C@H]1c4[nH]c5ccccc5c4C[C@@]4(O)[C@@H](C2)N(CC2CC2)CC[C@]314 [Naltrindole HCl]	32.7 µM
COc1ccc([C@H]2N[C@H](C(=O)O)Cc3c2[nH]c2ccccc32)cc1CN1CCN(c2ccccc2F)CC1 [Ned19]	101 µM
COC(=O)C1=C(C)NC(C)=C(C(=O)OCCN(C)Cc2ccccc2)C1c1cccc([N+](=O)[O-])c1 (stereo unspecified) [Nicardipine HCl]	28.3 µM
CNCCC(Oc1ccccc1OC)c1ccccc1 (stereo unspecified) [Nisoxetine HCl]	57.4 µM
CNCCC=C1c2ccccc2CCc2ccccc21 [Nortriptyline HCl]	12.6 µM
OCCN1CCN(CCCN2c3ccccc3C=Cc3ccccc32)CC1 [Opipramol dihydrochloride]	18.3 µM
Cc1ccccc1C(OCCN(C)C)c1ccccc1 (stereo unspecified) [Orphenadrine HCl]	16.2 µM
CCN(CC)CC#CCOC(=O)C(O)(c1ccccc1)C1CCCCC1 (stereo unspecified) [Oxybutynin Chloride]	48.5 µM

Compound	IC50 inhibition of E-S-FLU
C=CCc1cccc(/C=N/NC(=O)CN2CCN(Cc3ccccc3)CC2)c1O [PAC-1]	53.8 µM
Fc1ccc([C@@H]2CCNC[C@H]2COc2ccc3c(c2)OCO3)cc1 [Paroxetine HCl hemihydrate]	3 µM
OCCN1CCN(CCCN2c3ccccc3Sc3ccc(Cl)cc32)CC1 [Perphenazine]	8.18 µM
N=C(NC(=O)c1nc(Cl)c(N)nc1N)Nc1ccccc1 [Phenamil methanesulfonate]	44 µM
O=c1[nH]c2ccccc2n1C1CCN(CCCC(c2ccc(F)cc2)c2ccc(F)cc2)CC1 [Pimozide]	7.5 µM
COc1cc(/C=C/C(=O)N2CCC=CC2=O)cc(OC)c1OC [Piperlongumine]	9.5 µM
COc1cc2nc(N3CCN(C(=O)c4ccco4)CC3)nc(N)c2cc1OC [Prazosin HCl]	19.8 µM
CN1CCN(CCCN2c3ccccc3Sc3ccc(Cl)cc32)CC1 [Prochlorperazine dimaleate]	3.7 µM
CN(C)CCCN1c2ccccc2Sc2ccccc21 [Promazine HCl]	15 µM
CC(CN1c2ccccc2Sc2ccccc21)N(C)C (stereo unspecified) [Promethazine HCl]	22.8 µM
CCCNCC(O)COc1ccccc1C(=O)CCc1ccccc1 (stereo unspecified) [Propafenone HCl]	18.4 µM
CCC(=O)c1ccc2c(c1)N(CCCN(C)C)c1ccccc1S2 [Propionyl promazine HCl]	15.3 µM
C=Cc1c(C)c2cc3[nH]c(cc4nc(cc5nc(cc1[nH]2)C(C)=C5CCC(=O)O)C(CCC(=O)O)=C4C)c(C)c3C=C [Protoporphyrin IX]	42 µM
CNCCCC1c2ccccc2C=Cc2ccccc21 [Protriptyline HCl]	13.8 µM
CCN(CC)CCCC(C)Nc1c2ccc(Cl)cc2nc2ccc(OC)cc12 (stereo unspecified) [Quinacrine dihydrochloride]	2.91 µM
